Test results from PubChem BioAssay AID686978 (National Center for Advancing Translational Sciences (NCATS), 2013).
Among all 420,000 compounds or so, about 64,000 (15%) were called active. The shares of active, inactive and inconclusive entries below differ from those in the screen. The call rests on the fitted dose curve; in most records, active means well fitted inhibition curve with a large enough effect; inconclusive means small, poorly fitted or top-dose-only effect; inactive means flat fitted curve, though single readings scatter. No potency is given beside an inconclusive call; the fits are too rough.

Assay: qHTS for Inhibitors of human tyrosyl-DNA phosphodiesterase 1 (TDP1): qHTS in cells in absence of CPT; further: nearly all actives have a fitted effect of over 55% in size
Conditions: DT40 Tdp1-/- hTDP1 cells, no CPT, ATP luminescence, 48 h; activity change, negative = growth inhibition: at 46.2 µM (top of the series) unless noted
Outline: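 Camptothecin absent (DMSO only). Human TDP1-complemented DT40 knockout cells, 400 cells/well, 37 °C for minimum 48 hr; ATP measured via CellTiter-Glo, 30 min dark incubation, luminescence.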
On the % scale 0 is the no-effect control and ±100 the full control effect; potency means the concentration at half of the fitted maximal effect; tags describe the fitted curve by direction and shape.

SMILES | Potency | activity change, negative = growth inhibition
COc1cc2c(cc1OC)CN(C(=O)CCOc1ccccc1)CC2 | active: 18.4 µM | 
Cc1nc2ccc(NC(=O)c3sccc3C)cc2s1 | inconclusive [inhibitor, full curve] | 
COc1ccccc1OCC(=O)N1CC2(C)CC1CC(C)(C)C2 (stereo unspecified) | inconclusive [inhibitor, single point] | 
COc1ccccc1CNC(=O)c1c(O)nc2c(C)cccn2c1=O | inconclusive [inhibitor, full curve, poor fit] | 
O=C(NC12CC3CC(CC(C3)C1)C2)c1ccc(Br)o1 | inconclusive [inhibitor, single point] | 
CC(C)/C(O)=C1/C(=O)OC(c2ccoc2)[C@@]2(C)C(O)C(O)[C@@]34OC5(C)OC67CC(C)(C(O)[C@@]6(O)C(O)[C@@]3(O5)C12)C(CC(=O)O)[C@@]74C (stereo partly specified) | inactive | 
COc1ccccc1NC(=O)CSc1nnc(NC(=O)Nc2ccc(C)cc2)s1 | inconclusive [inhibitor, partial curve, poor fit] | 
COc1cccc(C(=O)/C=C2\NCCc3cc(OC)c(OC)cc32)c1 | inconclusive [inhibitor, single point] | 
Cc1cccc(NC(=O)c2cc3n(n2)C(C(F)(F)F)CC(c2ccc4c(c2)OCO4)N3)c1 (stereo unspecified) | inconclusive [inhibitor, single point] | 
CC(=O)c1ccc(NC(=O)CSc2nnc3ccc(-c4ccc(Br)cc4)nn23)cc1 | inconclusive [inhibitor, single point] | 
COc1cc(S(=O)(=O)NCc2ccncc2)c(OC)cc1Br | active: 13 µM | 
CCCn1c2ccccc2c2nnc(SCC(=O)OCC)nc21 | inconclusive [inhibitor, single point] | 
CCCOc1ccc(N2C(=O)CC(SC(=N)N3N=C(c4ccccc4)CC3c3ccccc3)C2=O)cc1 (stereo unspecified) | active: 18.4 µM | 
COc1ccc2cc(CN(Cc3ccco3)Cc3nnnn3C3CCCCC3)c(=O)[nH]c2c1 | inconclusive [inhibitor, single point] | 
COc1ccccc1CNC(=O)CN(C)c1nn2c(=O)cc(C)nc2s1 | inactive | 
CN1/C(=C\C=C(C#N)C#N)C(C)(C)c2ccccc21 | inactive | 
COc1ccc(CNC(=O)c2cccc(S(=O)(=O)N3CCCCC3)c2)cc1OC | inconclusive [inhibitor, partial curve] | 
CCN1CCc2c(sc(NC(=O)Cc3ccccc3)c2C(=O)OC)C1 | inconclusive [inhibitor, partial curve, poor fit] | 
CC(NC(=O)c1ccc(C(=O)c2ccccc2)cc1)c1ccc(S(N)(=O)=O)cc1 (stereo unspecified) |  | inconclusive: -31.5% [inhibitor]
Cc1cc(Cl)ccc1OC(C)C(=O)Nc1ccc(S(=O)(=O)N2CCOCC2)cc1 (stereo unspecified) | inconclusive [inhibitor, single point] | 
N#Cc1nc(COc2ccc(Br)cc2)oc1N1CCCC1 | inconclusive [inhibitor, partial curve] | 
CCc1nnc(NC(=O)CSc2nnc(-c3ccccc3O)o2)s1 | inactive | 
CC(O)(c1cccnc1)c1nc(-c2cccc(C(F)(F)F)c2)cs1 (stereo unspecified) | active: 14.6 µM | 
COc1cc(CN2CCN(C(=O)c3cccc4ccccc34)CC2)cc(OC)c1OC | inactive | 

SMILES | Potency | activity change, negative = growth inhibition
O=C(CCCNC(=O)c1ccc(Cl)cc1)Nc1cccc(S(=O)(=O)N2CCCCC2)c1 | inconclusive [inhibitor, partial curve] | 
C=CCC1C=C(C)CC(CC=C)N1 (stereo unspecified) | inactive | 
C[C@@H](C(=O)Nc1ccc2ccccc2c1)[C@H]1C[C@]1(C)[C@H](NC(=O)c1cnccn1)c1ccccc1 | inconclusive [inhibitor, single point] | 
c1ccc(-c2nc(NCc3cccs3)c3ccccc3n2)cc1 | inconclusive [inhibitor, single point] | 
COc1ccccc1NC(=O)CCC(=O)N1CC(C)Oc2ccc(C)cc21 (stereo unspecified) | active: 16.4 µM | 
CCOc1cccc2sc(N(CCCN(C)C)C(=O)c3ccc(S(=O)(=O)N(C)c4ccccc4)cc3)nc12 | inconclusive [inhibitor, single point] | 
Cc1cccc(N2CCN(C(=O)c3cn4ccccc4n3)CC2C)c1 (stereo unspecified) | inactive | 
COc1ccc2c(c1)CCc1cn3nc(C)cc3nc1-2 | inactive | 
O=C1NC(=S)N/C1=C/c1cc([N+](=O)[O-])ccc1N1CCOCC1 | inconclusive [inhibitor, single point] | 
C=CCn1c(C)cc(C(=O)CSc2nnc3n(CCC)c(=O)c4ccccc4n23)c1C | active: 18.4 µM | 
CCC(C)(C)C1CCc2[nH]nc(C(=O)NCc3ccc(OC)cc3)c2C1 (stereo unspecified) | active: 14.6 µM | 
CC(C)CCNS(=O)(=O)c1ccc(N2CCCCS2(=O)=O)cc1 | active: 9.2 µM | 
COc1ccc(N2CCN(C(=O)Cn3cnc4c(cnn4-c4ccc(C)cc4)c3=O)CC2)cc1 | inactive | 
CCOC(=O)c1ccc(NC(=O)CSc2nc(C)cc(=O)[nH]2)cc1 | inactive | 
CSc1ccc(/C=N/NC(=O)c2sccc2C)cc1 | inconclusive [inhibitor, partial curve] | 
COc1ccc(NC(=O)c2cc3n(n2)C(C(F)(F)F)CC(c2ccc4c(c2)OCO4)N3)cc1OC (stereo unspecified) | inconclusive [inhibitor, single point] | 
COc1ccc(-c2nnc3n(CCc4ccccc4)c(=O)c4ccccc4n23)c(OC)c1 | active: 13 µM | 
CNS(=O)(=O)c1cccc(C(=O)Nc2cccc(Cl)c2)c1 |  | inconclusive: -33.8% [inhibitor]
CC1(Cc2cccc(F)c2)C(=O)Nc2ccc(OC(F)(F)F)cc21 (stereo unspecified) | inconclusive [inhibitor, single point] | 
COc1ccc(NC(=O)Cn2c(=O)c3cc(Cl)ccc3n3nncc23)cc1 | inactive | 
S=C(NCCc1ccccc1)NC1CCCCCC1 | inconclusive [inhibitor, single point] | 
CC1CCN(c2oc(-c3ccc(F)cc3)nc2C#N)CC1 | inactive | 
O=C(COC(=O)c1ccc(C(F)(F)F)cc1)NC(=O)C1CCCCC1 | inactive | 
COc1ccc(-n2nc([N+](=O)[O-])c(=NCCc3ccc(C)cc3)n2O)cc1 | inconclusive [inhibitor, single point] | 

SMILES | Potency | activity change, negative = growth inhibition
CCOc1ccccc1N=Nc1c(C)[nH]n(-c2ccccc2)c1=O | inactive | 
Cc1ccc(NC(=O)CN(c2ccc(Cl)cc2)S(=O)(=O)c2cc([N+](=O)[O-])ccc2Cl)cc1 | active: 23.1 µM | 
CCN(CC)CCCn1c2c(c(SCC(=O)Nc3nc4ccccc4s3)nc1=O)CCC2 | inconclusive [inhibitor, single point] | 
CC(=O)N/C(=C\c1ccccc1)C(=O)OC(C)C(=O)N(C)c1ccccc1 (stereo unspecified) | inactive | 
COC(=O)CN1C(=O)CSc2ccc(S(=O)(=O)Nc3ccc(C(C)=O)cc3)cc21 | inactive | 
CC(C)(CNc1ccc([N+](=O)[O-])cc1Cl)CNS(C)(=O)=O | inconclusive [inhibitor, single point] | 
CC(=O)Nc1ccc(N2C(C(C)=O)=NN(c3ccc(Cl)cc3)C2c2sccc2C)cc1 (stereo unspecified) | active: 23.1 µM | 
CC(C)Oc1cccc(C(=O)NC(=S)N2CCN(c3ccc(C(F)(F)F)cc3[N+](=O)[O-])CC2)c1 | inconclusive [inhibitor, partial curve, poor fit] | 
Cc1cc(C)nc(S/C=C/C(=O)c2ccccc2F)n1 | active: 3.66 µM | 
CN(C(=O)CSc1nc(C2CCCC2)nc2c1c(=O)n(C)c(=O)n2C)c1ccccc1 | inconclusive [inhibitor, partial curve, poor fit] | 
Clc1ccc(-c2ccnc3nc(N4CCOCC4)nn23)c(Cl)c1 | inactive | 
CCOC(=O)C1=C(c2ccccc2)OC(N)=C(C#N)C1C1CCCCC1 (stereo unspecified) | inconclusive [inhibitor, single point] | 
C/C(=C\c1ccco1)CN1CCOc2ccc(CN3CCC(Oc4cccnc4)CC3)cc2C1 | inactive | 
Cc1nc2ncnn2c(N2CCN(S(=O)(=O)c3ccc(Br)cc3)CC2)c1C | active: 4.61 µM | 
Cc1ccc(NC(=O)NC(=O)CN2CCN(c3ccc(O)cc3)CC2)c(C)c1 | inconclusive [inhibitor, partial curve, poor fit] | 
CC1(C)CC(=O)C(C2c3ccccc3Oc3ccccc32)C(=O)C1 | inconclusive [inhibitor, single point] | 
c1ccc(C[n+]2ccc3ccccc3c2)cc1 | active: 16.4 µM | 
CCN1CCCC1CNC(=O)c1ccc(N2CCOCC2)c(NS(=O)(=O)c2ccc(OC)cc2)c1 (stereo unspecified) | inactive | 
CCc1nc(C)cn1S(=O)(=O)c1ccc(Br)cc1 | inconclusive [inhibitor, single point] | 
Cc1cc(C(=O)N2CCCC(N3CCN(c4cccc(Cl)c4)CC3)C2)no1 (stereo unspecified) | inconclusive [inhibitor, single point] | 
COc1ccc(C2=CSC3=NCCN23)cc1OC | inconclusive [inhibitor, single point] | 
COc1ccc(C(=O)CSc2nnc(NC(=O)C3CC(=O)N(c4ccccc4)C3)s2)cc1 (stereo unspecified) | inconclusive [inhibitor, partial curve, poor fit] | 
CC(=O)c1c(N2CCN(c3ccccn3)CC2)nc(=S)n(-c2ccccc2)c1C | inconclusive [inhibitor, single point] | 
